In PubChem BioAssay AID2546 (National Center for Advancing Translational Sciences (NCATS), 2010):
Hit rate of the full screen: of about 310,000 compounds, about 11,000 (3.5%) were called active. Inconclusive means that the source gave no clear call. Such entries were picked first, then a sample of the others. Calls come from the whole dose curve; as a rule, active = well fitted inhibition curve with a large enough effect; inconclusive = small, poorly fitted or top-dose-only effect, or effect the other way; inactive = flat fitted curve, though single readings scatter. Potencies of inconclusive entries are left out as doubtful fits.

Assay: VP16 counterscreen qHTS for inhibitors of ROR gamma transcriptional activity;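 note: Gal4-VP16 expression switched on by copper sulfate through the metallothionein promoter; nearly all actives have a fitted effect of over 50% in size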
Details: Drosophila S2 Gal4-VP16 UAS-luciferase, luminescence, 20 h; activity, negative = inhibition: at 53.6 µM (top of the series)
% is set by controls: 0 for no effect and ±100 for the full control effect; potency is the fitted concentration of half-maximal effect; tags give direction and shape of the fitted curve.

| Compound | activity, negative = inhibition | Potency |
| --- | --- | --- |
| CCOc1ccc(-n2ccnc2SCC(=O)Nc2cc(C)on2)cc1 | inactive: 4.01% |  |
| CCOC(=O)N1CCC(NC(=O)Cn2cc3c(n2)CCCCC3)CC1 |  | inconclusive [inhibitor, single point] |
| CCOCCCNc1c(CC)c(C)c(C#N)c2nc3ccccc3n12 | inactive: 1.69% |  |
| COc1cnc(-c2ccccn2)nc1Oc1ccc(Cl)c2ccccc12 |  | active: 7.94 µM |
| COC(=O)c1ccc2c(C(C)(C)O)c(C(C)(C)O)[nH]c2c1 | inactive: 4.95% |  |
| CN(CCc1ccccc1)C(=O)c1cc(COc2cccc(C(F)(F)F)c2)on1 |  | inconclusive [inhibitor, single point] |
| CCN1CCC2(CC1)N=C(c1ccc(F)cc1)C(=S)N2C(=O)c1ccc(C(C)(C)C)cc1 |  | inconclusive [inhibitor, single point] |
| COc1ccc(NC(=O)CCCN2C(=O)C3C4C=CC(C4)C3C2=O)c(OC)c1 (stereo unspecified) | inactive: -15.1% |  |
| Cc1cc(C(=O)CSc2nnnn2-c2ccc(O)cc2)c(C)n1Cc1ccc2c(c1)OCO2 |  | inconclusive [inhibitor, single point] |
| CC(O)CNc1ncnc2cc(-c3ccc(F)cc3)sc12 (stereo unspecified) |  | inconclusive [inhibitor, full curve] |
| COc1ccc(CN(C2CCCC2)S(=O)(=O)c2ccc(-n3cnnn3)c(OC)c2)cc1OC | inactive: -0.688% [at 0.365 µM] |  |
| Cc1ccc(S(=O)(=O)N(Cc2ccccc2)c2ccccc2C(=O)NCc2cccnc2)cc1 | inactive: -16.3% |  |
| COCCCn1c(N)c(-c2nc3ccccc3n2C)c2nc3ccccc3nc21 |  | active: 7.08 µM |
| COc1ccc(-c2noc(-c3ccccc3F)n2)cc1 |  | inconclusive [inhibitor, single point] |
| COc1ccc(C2=Nn3c(nnc3-c3ccccc3OC)SC2)c(OC)c1 |  | inconclusive [inhibitor, single point] |
| Oc1ccccc1-c1cc(-c2ccc(Cl)cc2)n[nH]1 |  | inconclusive [inhibitor, single point] |
| COc1ccc(NC(=S)NNC(=O)c2cccnc2)cc1OC |  | inconclusive [inhibitor, single point] |
| Cc1cc(C(F)(F)F)nn1CC(=O)NCc1cccs1 | inactive: 5.38% |  |
| CCCCC(CC)CNC(=O)C(=O)c1ccccc1NC(C)=O (stereo unspecified) |  | inconclusive [activator, single point] |
| COC(=O)CCC(C)C1CCC2C3CC[C@H]4CC(O)CC[C@@]4(C)C3CC(O)[C@]12C (stereo partly specified) |  | inconclusive [inhibitor, single point] |
| CC1CCc2c(C(=O)NCc3ccco3)csc2C1 (stereo unspecified) | inactive: 12% |  |
| O=C(Nc1ccc(S(=O)(=O)N2CCc3ccccc32)cc1)c1ccco1 | inactive: -8.84% |  |
| CCOC(=O)C1=C(C)N(CCCC(=O)O)C(=O)NC1c1ccc(Cl)cc1Cl (stereo unspecified) | inactive: 4.81% |  |
| Cc1ccc(-n2nc3ccc(NC(=S)NC(=O)/C=C/c4ccco4)cc3n2)cc1 |  | inconclusive [inhibitor, single point] |
| CCOC(=O)c1c(NC(=S)Nc2cc([N+](=O)[O-])ccc2OC)sc2c1CCCCC2 |  | active: 3.98 µM |
| COc1ccc(Cl)cc1NC(=O)c1ccccc1C | inactive: 28.4% |  |

| Compound | activity, negative = inhibition | Potency |
| --- | --- | --- |
| Fc1ccc(Nc2ccnc(-c3ccoc3)n2)cc1 |  | inconclusive [activator, full curve, poor fit] |
| Cc1ccc(C)c(N(CC(=O)NCc2ccco2)C(=O)CCC(=O)Nc2nccs2)c1 | inactive: 1.3% |  |
| CCCOc1ccc(CNC(=S)Nc2ccccc2)cc1Cl |  | active: 7.08 µM |
| Cc1ccc(C2NC(=S)NC3=C2C(=O)CC(C)(C)C3)cc1 (stereo unspecified) |  | inconclusive [inhibitor, single point] |
| CC(=O)CCC1C2C(O)C(C(C)C)C(OC(=O)/C=C/c3ccccc3)CC12C (stereo unspecified) |  | inconclusive [inhibitor, single point] |
| Cn1nc(-c2ccccc2F)c2cc(C(=O)Nc3ccc4c(c3)OCCO4)sc21 | inactive: 21.4% |  |
| CC(C)(C)NC(=O)COC(=O)c1ccccc1Nc1ccc(SC(F)F)cc1 |  | inconclusive [inhibitor, single point] |
| CC[C@@]1(O)C[C@H](O[C@H]2C[C@@H](N(C)C)[C@@H](O[C@H]3C[C@@H](O)[C@@H](O[C@H]4CCC(=O)[C@@H](C)O4)[C@@H](C)O3)[C@@H](C)O2)c2c(cc3c(c2O)C(=O)c2c(O)cccc2C3=O)[C@H]1C(=O)OC |  | active: 0.562 µM |
| COc1ccc(C2NC(c3ccc(OC)cc3)C(c3ccccc3)C(=O)C2c2ccccc2)cc1 (stereo unspecified) | inactive: 6.74% |  |
| CC1=NN(C(N)=S)C(=O)C1N=Nc1cccc2ccccc12 (stereo unspecified) |  | active: 2.82 µM |
| O=C(N/N=C/c1ccccc1O)C(=O)Nc1ccccn1 |  | active: 10 µM |
| Cc1nc([N+](=O)[O-])c(Sc2nc3ccccc3[nH]2)n1Cc1ccccc1 |  | inconclusive [inhibitor, single point] |
| CSc1cccc(NC(=S)N2CCCN(Cc3cccc(Cl)c3)C2)c1 |  | inconclusive [inhibitor, single point] |
| O=[N+]([O-])c1ccc(N=Nc2c(Cl)cc(O)cc2Cl)cc1 |  | active: 5.01 µM |
| COc1cc(N=c2ssnc2Cl)cc(OC)c1OC |  | active: 15.8 µM |
| Cc1noc(C)c1-c1ccc2ncnc(NCc3ccc(C(F)(F)F)cc3)c2c1 |  | inconclusive [inhibitor, single point] |
| COc1ccc(OCC(=O)NCCNC(=O)c2ccccn2)cc1 | inactive: -10.2% |  |
| COc1cc(C(=O)Nc2ccc(NC(=O)c3cccc(Cl)c3)nc2)cc(OC)c1OC | inactive: 19.4% |  |
| COCCCNC(=O)C(=O)Nc1cc2c3c(c1)CCC(=O)N3CCC2 | inactive: 6.19% |  |
| Cc1cc(C)cc(OCc2nnc(SCC(=O)c3ccc(Br)cc3)o2)c1 |  | inconclusive [inhibitor, single point] |
| COC(=O)C1(C(=O)OC)NOC2C(=O)N(c3ccccc3)C(=O)C21 (stereo unspecified) |  | inconclusive [activator, single point] |
| COc1cc(C)nc(NCc2ccccc2)n1 | inactive: 0.479% |  |
| Cc1sc2ncnc(N/N=C/c3ccccc3O)c2c1C |  | active: 15.8 µM |
| CC(C)Cn1c(N)c(C(=O)NCc2cccs2)c2nc3ccccc3nc21 |  | inconclusive [inhibitor, single point] |
| CCC(C)NS(=O)(=O)c1ccc(NC(=O)c2ccc([N+](=O)[O-])cc2Cl)cc1 (stereo unspecified) |  | inconclusive [inhibitor, partial curve] |
| Cc1ccc(NC(=O)C2CCN(C(=O)c3cccs3)CC2)c(C)c1 | inactive: 1.37% |  |

| Compound | activity, negative = inhibition | Potency |
| --- | --- | --- |
| Cc1ccc(C)c(-c2nnc(NC(=O)Cc3ccccc3)o2)c1 |  | active: 1.12 µM |
| CCNc1ncc2nc(-c3cn(C)c4ccccc34)c(=O)n(-c3ccccc3)c2n1 | inactive: 8.2% |  |
| CC(C)CC1=NN(C(=O)c2ccco2)C(O)(C(F)(F)F)C1 (stereo unspecified) |  | active: 14.1 µM |
| Fc1cccc(Cn2cc(C(=S)N3CCCCC3)c3ccccc32)c1 |  | active: 7.94 µM |
| c1ccc(COc2ccc(CNCc3cccs3)cc2)cc1 |  | active: 15.8 µM |
| O=C(CC1CC2CCC1C2)Nc1nc(-c2ccccn2)cs1 (stereo unspecified) |  | active: 12.6 µM |
| Cc1cccnc1NC(=O)C1CCN(S(=O)(=O)c2c(C)noc2/C=C/c2ccco2)CC1 | inactive: -1.49% |  |
| COC(=O)CNc1c(-c2ccccn2)nc2ccc(Br)cn12 |  | inconclusive [inhibitor, single point] |
| Cc1cc(N2CCN(C(=O)c3cccs3)CC2)c(F)cc1[N+](=O)[O-] |  | inconclusive [inhibitor, single point] |
| C=CC(C1=CC(=O)C(OC)=C(OC)C1=O)c1ccccc1 (stereo unspecified) |  | active: 7.08 µM |
| CCOC(=O)C1CCCN(C(=O)c2ccc3oc(CCc4ccccc4)nc3c2)C1 (stereo unspecified) |  | inconclusive [inhibitor, single point] |
| CC1CC(C)CN(C(=O)CCNC(=O)c2ccccc2Cl)C1 (stereo unspecified) |  | inconclusive [inhibitor, partial curve] |
| COCCCn1c(C23CC4CC(CC(C4)C2)C3)n[nH]c1=S |  | active: 6.31 µM |
| Cc1ccc(C)c(-c2ccc(=O)n(Cc3c(F)cccc3Cl)n2)c1 |  | inconclusive [inhibitor, single point] |
| COCCN(CCOC)c1nc(C)nc2c1nc(-c1ccccc1)n2CCCN(C)C | inactive: 3.6% |  |
| CCOC(=O)C1=C(N)OC2=C(C(=O)CCC2)C1c1ccc(C)s1 (stereo unspecified) |  | inconclusive [inhibitor, partial curve] |
| O=C(N/N=C/c1ccc2c(c1)OCO2)c1ccc(NC(=O)c2ccc(F)cc2)cc1 | inactive: 0% |  |
| Cc1ccsc1/C=N/NC(=O)Nc1ccccc1 |  | inconclusive [activator, single point] |
| Clc1ccc(CN(CC2CCCO2)C(c2cccs2)c2nnnn2C2CCCC2)cc1 (stereo unspecified) |  | inconclusive [inhibitor, single point] |
| COC(=O)COc1ccc(S(=O)(=O)Nc2ccccc2SC)cc1 | inactive: -0.403% |  |
| COc1ccc(NC(=O)c2ccc3c(c2)NC(=O)CS3)cc1S(=O)(=O)Nc1ccc(Br)cc1 |  | inconclusive [inhibitor, single point] |
| O=C1S/C(=C\C=C\c2ccco2)C(=O)N1c1ccccc1 |  | inconclusive [inhibitor, single point] |
| CC(C)(C)c1ccc(Cn2nnc3c(=O)[nH]c(C4CCN(C(=O)Cc5cccs5)CC4)nc32)cc1 |  | inconclusive [inhibitor, single point] |
| O=C1C(=O)N(CCCc2ccccc2)c2ccccc21 | inactive: 6.9% |  |
